The list shows a part of the results. Most values come without repeats; read them as rough.
Test system: A2058
Test: cell count relative to DMSO control; melanoma cells; higher = more viable cells
Conditions: library dose: low library concentration; 72 h
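Note: cell number obtained by counting DAPI-stained nuclei in high-throughput microscope images with image analysis software, screen run in 1,536-well plates.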

SMILES	cell count
CC1(C)CCC(c2ccc(Cl)cc2)=C(CN2CCN(c3ccc(C(=O)NS(=O)(=O)c4ccc(N[C@H](CCN5CCOCC5)CSc5ccccc5)c(S(=O)(=O)C(F)(F)F)c4)cc3)CC2)C1 + O=c1cc(-c2cccc3c2Sc2ccccc2S3)oc(N2CCOCC2)c1 [KU55933] (first compound 0.4 µM, partner dose 1 µM)	85.1%
CC1(C)CCC(c2ccc(Cl)cc2)=C(CN2CCN(c3ccc(C(=O)NS(=O)(=O)c4ccc(N[C@H](CCN5CCOCC5)CSc5ccccc5)c(S(=O)(=O)C(F)(F)F)c4)cc3)CC2)C1 + N#Cc1c(O)c2c(-c3ccc(-c4ccccc4O)cc3)csc2[nH]c1=O [A769662] (first compound 0.4 µM, partner dose 2 µM)	93.8%
CC1(C)CCC(c2ccc(Cl)cc2)=C(CN2CCN(c3ccc(C(=O)NS(=O)(=O)c4ccc(N[C@H](CCN5CCOCC5)CSc5ccccc5)c(S(=O)(=O)C(F)(F)F)c4)cc3)CC2)C1 + c1cc(-c2cnn3cc(-c4ccc(OCCN5CCCCC5)cc4)cnc23)ccn1 [Dorsomorphin] (first compound 0.4 µM, partner dose 0.4 µM)	98%
O=C(/C=C/c1cccnc1)NCCCCC1CCN(C(=O)c2ccccc2)CC1 + Cc1cc(Nc2cc(N3CCN(C)CC3)nc(/C=C/c3ccccc3)n2)n[nH]1 [ENMD2076] (first compound 0.01 µM, partner dose 0.04 µM)	113%
O=C(/C=C/c1cccnc1)NCCCCC1CCN(C(=O)c2ccccc2)CC1 + CC(C)CCN1c2nc(Nc3cc(F)c(O)c(F)c3)ncc2N(C)C(=O)C1C [BID1870] (first compound 0.01 µM, partner dose 0.2 µM)	96.3%
O=C(/C=C/c1cccnc1)NCCCCC1CCN(C(=O)c2ccccc2)CC1 + Cc1cc([N+](=O)[O-])ccc1NS(=O)(=O)c1cc(Cl)ccc1Cl [FH535] (first compound 0.01 µM, partner dose 1 µM)	115%
Cc1ccc(Nc2nccc(N(C)c3ccc4c(C)n(C)nc4c3)n2)cc1S(N)(=O)=O [Pazopanib] + O=C1NC(=O)/C(=C/c2ccc(-c3ccc(F)cc3O)o2)S1 [AS252424] (first compound 0.4 µM, partner dose 1 µM)	89.7%
CC1(C)CCC(c2ccc(Cl)cc2)=C(CN2CCN(c3ccc(C(=O)NS(=O)(=O)c4ccc(N[C@H](CCN5CCOCC5)CSc5ccccc5)c(S(=O)(=O)C(F)(F)F)c4)cc3)CC2)C1 + O=C(O)C(=O)Nc1sc2c(c1C(=O)O)CCNC2 [TCS401] (first compound 0.4 µM, partner dose 1.66667 µM)	101%
Cc1ccc(Nc2nccc(N(C)c3ccc4c(C)n(C)nc4c3)n2)cc1S(N)(=O)=O [Pazopanib] + CCc1ccc(CCOc2ccc(CC3SC(=O)NC3=O)cc2)nc1 [pioglitazone] (first compound 0.4 µM, partner dose 2 µM)	95%
CC1(C)CCC(c2ccc(Cl)cc2)=C(CN2CCN(c3ccc(C(=O)NS(=O)(=O)c4ccc(N[C@H](CCN5CCOCC5)CSc5ccccc5)c(S(=O)(=O)C(F)(F)F)c4)cc3)CC2)C1 + Oc1nc(-c2ccc(C(F)(F)F)cc2)nc2c1CSCC2 [XAV939] (first compound 0.4 µM, partner dose 2 µM)	82.5%
Cc1ccc(Nc2nccc(N(C)c3ccc4c(C)n(C)nc4c3)n2)cc1S(N)(=O)=O [Pazopanib] + COc1ccc2c(c1)CCC1C2CCC2(C)C(NCCCCCCN3C(=O)C=CC3=O)CCC12 [U73122] (first compound 0.4 µM, partner dose 0.4 µM)	89.9%
CC1(C)CCC(c2ccc(Cl)cc2)=C(CN2CCN(c3ccc(C(=O)NS(=O)(=O)c4ccc(N[C@H](CCN5CCOCC5)CSc5ccccc5)c(S(=O)(=O)C(F)(F)F)c4)cc3)CC2)C1 + O=S(=O)(c1ccccc1)N(CC(F)(F)F)c1ccc(C(O)(C(F)(F)F)C(F)(F)F)cc1 [T0901317] (first compound 0.4 µM, partner dose 1.4 µM)	81.1%
Cc1ccc(Nc2nccc(N(C)c3ccc4c(C)n(C)nc4c3)n2)cc1S(N)(=O)=O [Pazopanib] + COC(=O)c1sccc1S(=O)(=O)Nc1ccc(Nc2ccccc2)cc1OC [GSK0660] (first compound 0.4 µM, partner dose 1 µM)	93.3%
Cc1ccc(Nc2nccc(N(C)c3ccc4c(C)n(C)nc4c3)n2)cc1S(N)(=O)=O [Pazopanib] + Cn1cc(/C=C2\C(=O)Nc3cccnc32)c2ccccc21 [GW441756] (first compound 0.4 µM, partner dose 0.4 µM)	106%
Cc1ccc(Nc2nccc(N(C)c3ccc4c(C)n(C)nc4c3)n2)cc1S(N)(=O)=O [Pazopanib] + C[C@@H](Oc1cc(-c2cnn(C3CCNCC3)c2)cnc1N)c1c(Cl)ccc(F)c1Cl [Crizotinib] (first compound 0.4 µM, partner dose 0.2 µM)	92.7%
CC1(C)CCC(c2ccc(Cl)cc2)=C(CN2CCN(c3ccc(C(=O)NS(=O)(=O)c4ccc(N[C@H](CCN5CCOCC5)CSc5ccccc5)c(S(=O)(=O)C(F)(F)F)c4)cc3)CC2)C1 + COc1ccc(-c2ccc3c(N4CCOCC4)nc(N4C[C@@H](C)O[C@@H](C)C4)nc3n2)cc1CO [KU0063794] (first compound 0.4 µM, partner dose 0.02 µM)	72.5%
O=C(/C=C/c1cccnc1)NCCCCC1CCN(C(=O)c2ccccc2)CC1 + N#Cc1c(O)c2c(-c3ccc(-c4ccccc4O)cc3)csc2[nH]c1=O [A769662] (first compound 0.01 µM, partner dose 2 µM)	111%
O=C(/C=C/c1cccnc1)NCCCCC1CCN(C(=O)c2ccccc2)CC1 + COc1ccc(COc2ccc(Cc3cnc(N)nc3N)cc2OC)cc1 [GW2580] (first compound 0.01 µM, partner dose 1 µM)	105%
Cc1ccc(Nc2nccc(N(C)c3ccc4c(C)n(C)nc4c3)n2)cc1S(N)(=O)=O [Pazopanib] + c1cc(-c2cnn3cc(-c4ccc(OCCN5CCCCC5)cc4)cnc23)ccn1 [Dorsomorphin] (first compound 0.4 µM, partner dose 0.4 µM)	104%
O=C(/C=C/c1cccnc1)NCCCCC1CCN(C(=O)c2ccccc2)CC1 + CCc1ccc(CCOc2ccc(CC3SC(=O)NC3=O)cc2)nc1 [pioglitazone] (first compound 0.01 µM, partner dose 2 µM)	112%
CC1(C)CCC(c2ccc(Cl)cc2)=C(CN2CCN(c3ccc(C(=O)NS(=O)(=O)c4ccc(N[C@H](CCN5CCOCC5)CSc5ccccc5)c(S(=O)(=O)C(F)(F)F)c4)cc3)CC2)C1 + Cc1cc(N2CCOCC2)cc2[nH]c(-c3c(NC[C@@H](O)c4cccc(Cl)c4)cc[nH]c3=O)nc12 [BMS536924] (first compound 0.4 µM, partner dose 0.2 µM)	102%
